According to the supplement of paper PMC10126150:
Sequences with one replicate were seen in a single cluster, so their values are uncertain.

System: ATP
Assay: switch fluorescence ratio, 500 uM ATP over buffer (Cy3 cluster intensity, sum of 5 cycles each) (fold (ratio)); higher = stronger signal-on switching upon ATP binding; sequences stand for … in TCGTCGGCAGCGTCAGATGTGTATAAGAGACAGTTTTTTTTTTTTTTTTTTTTTTTTT…TC
Details: aptamer strand: ATP DNA aptamer (quencher-CACCTGGGGGAGTATTGCGGAGGAAGG + anchor), 100 nM annealed; ATP concentration: 500 uM; one replicate
Procedure, shortened: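 Cy3-labelled switching-strand clusters on a modified Illumina MiSeq flow-cell were annealed to 100 nM quencher-labelled ATP aptamer, imaged in selection buffer, then imaged after 15 min with 500 uM ATP at 22 °C. Five buffer/ATP cycles ran, with NaOH stripping and re-annealing between them. The fluorescence ratio is summed target-cycle over summed buffer-cycle Cy3 intensity per cluster, averaged per switch-domain sequence. Clusters outside 100-1000 RFU were excluded.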
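Also: ATP exposure 15 min at 22 °C before imaging.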

| Sequence | switch fluorescence ratio |
| --- | --- |
| AATAATACTA | 1.05 |
| AATAATCGTT | 1.01 |
| AATAATTTCA | 1.02 |
| AATACATATG | 0.997 |
| AATACGTATT | 0.996 |
| AATACTCCGA | 1.9 |
| AATACTTTAA | 1.05 |
| AATAGAATGC | 0.901 |
| AATAGCATAG | 1.02 |
| AATAGCGCAA | 3.2 |
| AATAGCGCCT | 1.02 |
| AATAGGCGGT | 1 |
| AATAGGCGTC | 0.976 |
| AATAGGTAGA | 1.01 |
| AATAGGTTCT | 0.988 |
| AATAGTGAAT | 0.979 |
| AATAGTTCAC | 0.959 |
| AATATACTCA | 1.09 |
| AATATCCGAT | 1.02 |
| AATATCCGTG | 0.969 |
| AATATCGGTG | 1.06 |
| AATATGCGAA | 0.985 |
| AATATGGGA | 0.966 |
| AATATGTTAT | 0.99 |
| AATATTAACA | 1 |
| AATATTAGAG | 0.956 |

| Sequence | switch fluorescence ratio |
| --- | --- |
| AATATTCTAC | 1.02 |
| AATATTTCAC | 1.45 |
| AATCAACGT | 1.02 |
| AATCAAGTCC | 1.01 |
| AATCACCCGT | 0.997 |
| AATCACGTAT | 1.21 |
| AATCAGAGCA | 1.05 |
| AATCAGCAGG | 1.06 |
| AATCAGCTAC | 2.61 |
| AATCAGGTGG | 1.01 |
| AATCAGTATA | 1.02 |
| AATCATCCGA | 1.03 |
| AATCATGAGC | 1.06 |
| AATCCATGCT | 1.01 |
| AATCCCCAA | 1.09 |
| AATCCCCTGA | 0.992 |
| AATCCCGCCT | 1.07 |
| AATCCGAGA | 1.07 |
| AATCCGGTTA | 1.01 |
| AATCCTAATT | 0.986 |
| AATCCTATTA | 0.936 |
| AATCCTTACA | 0.981 |
| AATCGAAAAA | 1 |
| AATCGAATC | 0.997 |
| AATCGACGTG | 0.96 |
| AATCGGAATG | 0.967 |

| Sequence | switch fluorescence ratio |
| --- | --- |
| AATCGGCAAA | 0.936 |
| AATCGGTCAG | 0.981 |
| AATCGTCATA | 1 |
| AATCGTGTTA | 0.95 |
| AATCTAGAGA | 0.995 |
| AATCTATTAC | 1.03 |
| AATCTATTAG | 0.993 |
| AATCTCAAAA | 1.01 |
| AATCTCAACG | 0.978 |
| AATCTCTAGG | 1.03 |
| AATCTGTGTT | 1.01 |
| AATCTTTAAC | 1.01 |
| AATCTTTGAC | 0.948 |
| AATGAAACAC | 1.06 |
| AATGAACTGT | 1 |
| AATGAATGG | 0.977 |
| AATGACACAT | 1.02 |
| AATGACTTAG | 1.02 |
| AATGAGCCGC | 1.03 |
| AATGAGGTCT | 0.987 |
| AATGAGTTGA | 0.975 |
| AATGCACAGC | 1.07 |
| AATGCACGT | 1.1 |
| AATGCAGGAA | 1.02 |
| AATGCCTGAG | 1.12 |
| AATGCGGTGG | 1.03 |

| Sequence | switch fluorescence ratio |
| --- | --- |
| AATGGAATGA | 0.957 |
| AATGGAATGT | 0.989 |
| AATGGAGGAA | 1.06 |
| AATGGATGGA | 1.02 |
| AATGGCCT | 1.06 |
| AATGGCCTCG | 0.964 |
| AATGGGTCAA | 1.11 |
| AATGGGTCGA | 1 |
| AATGGTGTTA | 1.04 |
| AATGGTTCT | 0.971 |
| AATGTACGGT | 1.08 |
| AATGTAGCGG | 0.978 |
| AATGTAGGGC | 1.04 |
| AATGTAGTA | 1.04 |
| AATGTAGTGG | 0.994 |
| AATGTATTCC | 1.07 |
| AATGTGAGT | 0.993 |
| AATGTGCGCA | 0.987 |
| AATGTGGTCA | 0.956 |
| AATGTGGTCC | 1.02 |
| AATGTGTAAG | 0.988 |
| AATGTGTGAG | 0.993 |
| AATGTGTGCG | 0.973 |
| AATGTTCAAG | 0.974 |
| AATGTTGAGA | 1.01 |
| AATGTTGGAC | 1.01 |

| Sequence | switch fluorescence ratio |
| --- | --- |
| AATGTTGGT | 1.02 |
| AATGTTGGTC | 0.98 |
| AATGTTTAAC | 1.01 |
| AATGTTTGCG | 1.06 |
| AATTAAGGGC | 0.989 |
| AATTACAACG | 1.03 |
| AATTACAGTT | 0.998 |
| AATTACCCCT | 1.06 |
| AATTAGGAGA | 0.962 |
| AATTAGGTT | 0.947 |
| AATTATATTA | 1.01 |
| AATTATCTAA | 0.977 |
| AATTATCTTA | 0.958 |
| AATTATTTGG | 0.993 |
| AATTCAATCG | 1.02 |
| AATTCATTGG | 0.984 |
| AATTCCGAAA | 1.35 |
| AATTCCGCCC | 1.57 |
| AATTCCTGGC | 0.974 |
| AATTCGATCC | 1.06 |
| AATTCGATCT | 1 |
| AATTCTCGT | 1.01 |
| AATTGAGTGA | 0.956 |
| AATTGAGTTC | 1.01 |
| AATTGCGAGG | 0.982 |
| AATTGCGCTG | 0.896 |

| Sequence | switch fluorescence ratio |
| --- | --- |
| AATTGGAGCA | 1 |
| AATTGGTCCA | 1.02 |
| AATTGTCCAG | 0.971 |
| AATTGTGGCA | 1 |
| AATTGTTACG | 1.02 |
| AATTTAATTC | 0.959 |
| AATTTACCGT | 1.03 |
| AATTTACTAG | 1.05 |
| AATTTCCAGG | 1.53 |
| AATTTCTCCG | 1.79 |
| AATTTGAGTT | 0.977 |
| AATTTGTGCT | 0.98 |
| AATTTTAGCG | 1 |
| AATTTTCCAG | 0.968 |
| AATTTTCGCG | 0.943 |
| AATTTTGGGG | 0.985 |
| ACAAAAAGTG | 1.01 |
| ACAAAACCAG | 1.15 |
| ACAAAATGAA | 0.937 |
| ACAAACTAAC | 1.15 |
| ACAAAGGGA | 1.04 |
| ACAAATGCTC | 1.06 |
| ACAAATGTCA | 0.993 |
| ACAACCGGCA | 1.06 |
| ACAACTCTCG | 1.04 |
| ACAACTGTTT | 1.11 |

| Sequence | switch fluorescence ratio |
| --- | --- |
| ACAAGAGACC | 1.05 |
| ACAAGATATG | 1.02 |
| ACAAGGATGT | 0.985 |
| ACAAGGGCTG | 1.04 |
| ACAAGGTAAC | 0.99 |
| ACAAGGTATG | 1.05 |
| ACAAGTCAAT | 1.05 |
| ACAATACATA | 1.2 |
| ACAATATGGC | 0.942 |
| ACAATCTTCT | 1.05 |
| ACAATGCAGG | 1.05 |
| ACAATGGGTT | 1.02 |
| ACAATTCCTT | 1.03 |
| ACACAACAT | 1.19 |
| ACACAACATA | 1.12 |
| ACACAATGGT | 1.01 |
| ACACACTAAA | 1.23 |
| ACACATGGAC | 1.01 |
| ACACCAGGAC | 1.25 |
| ACACCGGTGC | 1.07 |
| ACACCTTTAG | 1.03 |
| ACACGAGTTA | 1.02 |
| ACACGCATCC | 1.7 |
| ACACGCGTCC | 1.04 |
| ACACGCTAAT | 1.26 |
| ACACGTCTTC | 1.02 |

| Sequence | switch fluorescence ratio |
| --- | --- |
| ACACGTCTTT | 1.07 |
| ACACTCCTAG | 1.01 |
| ACACTGAAGA | 0.982 |
| ACACTTACGG | 1.59 |
| ACACTTGCAG | 0.986 |
| ACAGACAACT | 1.14 |
| ACAGACCTTG | 1.05 |
| ACAGAGACAC | 1.06 |
| ACAGAGATAT | 0.994 |
| ACAGAGGC | 1 |
| ACAGATCACT | 1 |
| ACAGCAAATT | 1.15 |
| ACAGCACCAG | 1.28 |
| ACAGCGTCGG | 0.978 |
| ACAGCTCCTC | 1.04 |
| ACAGCTTAGT | 1.02 |
| ACAGGACTCA | 1.09 |
| ACAGGAGCCC | 1.05 |
| ACAGGAGGG | 0.973 |
